# The other results are listed elsewhere or left out.
# B1: Morniga (Morus nigra) (protein)
# chain: MAGTSTNTQTTGTSQTVEVGLWGGPGGNAWDDGSYTGIREINLSHGDAIGAFSVIYDLNGQPFTGPTHPGNEPSFKTVKITLDFPNEFLVSVSGYTGVLPRLATGKDVIRSLTFKTNKKTYGPYGKEEGTPFSLPIENGLIVGFKGRSGFVVDAIGVHLS
# Tests used:
# Assay in all cases: glycan array binding signal (z-score within array); higher = stronger binding
# Details in all cases: glycan notation: IUPAC condensed, linker removed
# [1] = target: Neu5Ac(a2-3)Gal(b1-4)GlcNAc(b1-3)Gal(b1-4)[Fuc(a1-3)]GlcNAc
# Method in brief: (§1)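 Glycan array binding is given as a within-array Z-score, which can be read as non-binding when negative. The arrays, 3228 of them, came from the Consortium for Functional Glycomics database and were retained only where the protein sequence was available. Z-scores were averaged across arrays of the same protein sequence at different concentrations or buffers and across linkers.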
# [2] = target: Neu5Ac(a2-3)Gal(b1-4)GlcNAc(b1-3)GalNAc
# Method in brief: as §1
# [3] = target: Neu5Ac(a2-3)Gal(b1-4)GlcNAc(b1-3)[Neu5Ac(a2-3)Gal(b1-4)GlcNAc(b1-6)]GalNAc
# Method in brief: as §1
# [4] = target: Neu5Ac(a2-3)Gal(b1-4)GlcNAc(b1-6)GalNAc
# Method in brief: as §1
# [5] = target: Neu5Ac(a2-3)Gal(b1-4)GlcNAc(b1-6)[Gal(b1-3)]GalNAc
# Method in brief: as §1
# [6] = target: Neu5Ac(a2-3)Gal(b1-4)GlcNAc(b1-6)[Neu5Ac(a2-3)Gal(b1-3)]GalNAc
# Method in brief: as §1
# [7] = target: Neu5Ac(a2-3)Gal(b1-4)GlcNAc6S
# Method in brief: as §1
# [8] = target: Neu5Ac(a2-3)Gal(b1-4)[Fuc(a1-3)]GlcNAc
# Method in brief: as §1
# [9] = target: Neu5Ac(a2-3)Gal(b1-4)[Fuc(a1-3)]GlcNAc(b1-3)Gal
# Method in brief: as §1
# [10] = target: Neu5Ac(a2-3)Gal(b1-4)[Fuc(a1-3)]GlcNAc(b1-3)Gal(b1-4)GlcNAc
# Method in brief: as §1
# [11] = target: Neu5Ac(a2-3)Gal(b1-4)[Fuc(a1-3)]GlcNAc(b1-3)Gal(b1-4)[Fuc(a1-3)]GlcNAc(b1-3)Gal(b1-4)[Fuc(a1-3)]GlcNAc
# Method in brief: as §1
# [12] = target: Neu5Ac(a2-3)Gal(b1-4)[Fuc(a1-3)]GlcNAc(b1-3)GalNAc
# Method in brief: as §1
# [13] = target: Neu5Ac(a2-3)Gal(b1-4)[Fuc(a1-3)]GlcNAc(b1-6)[Gal(b1-3)]GalNAc
# Method in brief: as §1
# [14] = target: Neu5Ac(a2-3)Gal(b1-4)[Fuc(a1-3)]GlcNAc6S
# Method in brief: as §1
# [15] = target: Neu5Ac(a2-3)Gal6S(b1-4)GlcNAc
# Method in brief: as §1
# [16] = target: Neu5Ac(a2-3)Gal6S(b1-4)[Fuc(a1-3)]GlcNAc
# Method in brief: as §1
# [17] = target: Neu5Ac(a2-3)GalNAc
# Method in brief: as §1
# [18] = target: Neu5Ac(a2-3)GalNAc(b1-4)GlcNAc
# Method in brief: as §1
# [19] = target: Neu5Ac(a2-3)[GalNAc(b1-4)]Gal(b1-4)Glc
# Method in brief: as §1
# [20] = target: Neu5Ac(a2-3)[GalNAc(b1-4)]Gal(b1-4)GlcNAc
# Method in brief: as §1
# [21] = target: Neu5Ac(a2-3)[GalNAc(b1-4)]Gal(b1-4)GlcNAc(b1-3)GalNAc
# Method in brief: as §1
# [22] = target: Neu5Ac(a2-3)[Neu5Ac(a2-6)]GalNAc
# Method in brief: as §1
# [23] = target: Neu5Ac(a2-6)Gal
# Method in brief: as §1
# [24] = target: Neu5Ac(a2-6)Gal(b1-3)GlcNAc(b1-3)[Gal(b1-4)GlcNAc(b1-6)]Gal(b1-4)Glc
# Method in brief: as §1
# [25] = target: Neu5Ac(a2-6)Gal(b1-4)Glc
# Method in brief: as §1
# [26] = target: Neu5Ac(a2-6)Gal(b1-4)GlcNAc
# Method in brief: as §1
# [27] = target: Neu5Ac(a2-6)Gal(b1-4)GlcNAc(b1-2)Man(a1-3)Man(b1-4)GlcNAc(b1-4)GlcNAc
# Method in brief: as §1
# [28] = target: Neu5Ac(a2-6)Gal(b1-4)GlcNAc(b1-2)Man(a1-3)[Gal(b1-4)GlcNAc(b1-2)Man(a1-6)]Man(b1-4)GlcNAc(b1-4)GlcNAc
# Method in brief: as §1
# [29] = target: Neu5Ac(a2-6)Gal(b1-4)GlcNAc(b1-2)Man(a1-3)[GlcNAc(b1-2)Man(a1-6)]Man(b1-4)GlcNAc(b1-4)GlcNAc
# Method in brief: as §1
# [30] = target: Neu5Ac(a2-6)Gal(b1-4)GlcNAc(b1-2)Man(a1-3)[GlcNAc(b1-2)Man(b1-4)GlcNAc(b1-2)Man(a1-6)]Man(b1-4)GlcNAc(b1-4)GlcNAc
# Method in brief: as §1
# [31] = target: Neu5Ac(a2-6)Gal(b1-4)GlcNAc(b1-2)Man(a1-3)[Man(a1-6)]Man(b1-4)GlcNAc(b1-4)GlcNAc
# Method in brief: as §1
# [32] = target: Neu5Ac(a2-6)Gal(b1-4)GlcNAc(b1-2)Man(a1-3)[Neu5Ac(a2-6)Gal(b1-4)GlcNAc(b1-2)Man(a1-6)]Man(b1-4)GlcNAc(b1-4)GlcNAc
# Method in brief: as §1
# [33] = target: Neu5Ac(a2-6)Gal(b1-4)GlcNAc(b1-2)Man(a1-3)[Neu5Ac(a2-6)Gal(b1-4)GlcNAc(b1-2)Man(a1-6)]Man(b1-4)GlcNAc(b1-4)[Fuc(a1-6)]GlcNAc
# Method in brief: as §1
# [34] = target: Neu5Ac(a2-6)Gal(b1-4)GlcNAc(b1-2)Man(a1-6)Man(b1-4)GlcNAc(b1-4)GlcNAc
# Method in brief: as §1
# [35] = target: Neu5Ac(a2-6)Gal(b1-4)GlcNAc(b1-2)Man(a1-6)[Gal(b1-4)GlcNAc(b1-2)Man(a1-3)]Man(b1-4)GlcNAc(b1-4)GlcNAc
# Method in brief: as §1
# [36] = target: Neu5Ac(a2-6)Gal(b1-4)GlcNAc(b1-2)Man(a1-6)[GlcNAc(b1-2)Man(a1-3)]Man(b1-4)GlcNAc(b1-4)GlcNAc
# Method in brief: as §1
binder,measurement,setting,value
B1,glycan array binding signal (z-score),[1],-0.334
same,glycan array binding signal (z-score),[2],-0.339
same,glycan array binding signal (z-score),[3],-0.342
same,glycan array binding signal (z-score),[4],-0.326
same,glycan array binding signal (z-score),[5],-0.337
same,glycan array binding signal (z-score),[6],-0.334
same,glycan array binding signal (z-score),[7],-0.34
same,glycan array binding signal (z-score),[8],-0.337
same,glycan array binding signal (z-score),[9],-0.332
same,glycan array binding signal (z-score),[10],-0.326
same,glycan array binding signal (z-score),[11],-0.323
same,glycan array binding signal (z-score),[12],-0.272
same,glycan array binding signal (z-score),[13],-0.287
same,glycan array binding signal (z-score),[14],-0.341
same,glycan array binding signal (z-score),[15],-0.343
same,glycan array binding signal (z-score),[16],-0.335
same,glycan array binding signal (z-score),[17],-0.339
same,glycan array binding signal (z-score),[18],-0.344
same,glycan array binding signal (z-score),[19],-0.339
same,glycan array binding signal (z-score),[20],-0.338
same,glycan array binding signal (z-score),[21],-0.332
same,glycan array binding signal (z-score),[22],-0.331
same,glycan array binding signal (z-score),[23],-0.339
same,glycan array binding signal (z-score),[24],-0.341
same,glycan array binding signal (z-score),[25],-0.34
same,glycan array binding signal (z-score),[26],-0.334
same,glycan array binding signal (z-score),[27],3.66
same,glycan array binding signal (z-score),[28],3.11
same,glycan array binding signal (z-score),[29],2.92
same,glycan array binding signal (z-score),[30],3.36
same,glycan array binding signal (z-score),[31],3.23
same,glycan array binding signal (z-score),[32],3.25
same,glycan array binding signal (z-score),[33],1.41
same,glycan array binding signal (z-score),[34],-0.33
same,glycan array binding signal (z-score),[35],3.24
same,glycan array binding signal (z-score),[36],2.98
